From the supplement of paper PMC4967469
The IC50 comes from the fitted curve, where viability falls to half of the control; where the fit passes the top or lowest dose, that dose stands as a limit. AUC sums up the same curve from the lowest dose to the 256-fold higher top dose; the more sensitive the line, the further below 1. For some of these results: An inferred top dose was calculated from the reported fits.

Tests used:
Test in all cases: Viability of human cancer cell lines after 72 h of drug (GDSC screen)
[1] = compound: CC(=O)Nc1cccc(-n2c(=O)n(C3CC3)c(=O)c3c(Nc4ccc(I)cc4F)n(C)c(=O)c(C)c32)c1 [Trametinib]; settings: top dose 1 µM
Description: (§1)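 Human cancer cell lines in 384-well plates, medium with 10% serum, drug for 72 h over a 256-fold dose range (nine 2-fold or five 4-fold steps up to the top dose). Adherent lines were fixed and stained with the nucleic acid dye Syto60, suspension lines read with resazurin; signal relative to control wells, capped at 0 and 100%. One two-parameter sigmoid per drug and line, fitted in a mixed model over all curves with the slope shared within a line.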

[2] = compound: CCN1CCN(Cc2ccc(NC(=O)c3ccc(C)c(/C=C/c4cnc5[nH]ccc5c4OC)c3)cc2C(F)(F)F)CC1 [HG-6-64-1]; settings: top dose 5.12 µM; top dose inferred
Description: as §1

[3] = compound: CCNC(=O)C[C@@H]1N=C(c2ccc(Cl)cc2)c2cc(OC)ccc2-n2c(C)nnc21 [I-BET-762]; settings: top dose 20 µM; top dose inferred
Description: as §1

[4] = compound: CCc1cncnc1N1CCN(Cc2nc3ccc(C(F)(F)F)cc3[nH]2)CC1 [PF-4708671]; settings: top dose 10 µM; top dose inferred
Description: as §1

[5] = compound: COc1cc2nccc(Oc3ccc(NC(=O)Nc4cc(C)on4)c(Cl)c3)c2cc1OC [AV-951]; settings: top dose 0.128 µM; top dose inferred
Description: as §1

[6] = compound: O=C(NC(COc1ccc2[nH]c(=O)[nH]c2c1)c1ccccc1)c1cccn(Cc2ccc(F)c(F)c2)c1=O [KIN001-244]; settings: top dose 20 µM; top dose inferred
Description: as §1

| Cell Line | AUC [1] | IC50 [1] [nM] | AUC [2] | IC50 [2] [nM] | AUC [3] | IC50 [3] [µM] | AUC [4] | IC50 [4] [µM] | AUC [5] | IC50 [5] [nM] | AUC [6] | IC50 [6] [µM] |
| --- | --- | --- | --- | --- | --- | --- | --- | --- | --- | --- | --- | --- |
| 22RV1 (prostate, adherent) | 0.926 | > 1000 | 0.864 | > 5120 | 0.818 | 14.9 | 0.929 | > 10 | 0.957 | > 128 | 0.777 | 10.1 |
| 42-MG-BA (glioma, adherent) | 0.863 | 968 | 0.65 | 860 | 0.936 | > 20 | 0.939 | > 10 | 0.929 | > 128 | 0.882 | > 20 |
| 451Lu (melanoma, adherent) | 0.078 | < 3.91 | 0.572 | 500 | 0.983 | > 20 | 0.921 | > 10 | 0.988 | > 128 | 0.923 | > 20 |
| 639-V (bladder, adherent) | 0.728 | 246 | 0.679 | 926 | 0.97 | > 20 | 0.968 | > 10 | 0.99 | > 128 | 0.956 | > 20 |
| 786-0 (kidney, adherent) | 0.734 | 273 | 0.481 | 285 | 0.903 | > 20 | 0.792 | 4.14 | 0.98 | > 128 | 0.868 | 15.8 |
| 5637 (bladder, adherent) | 0.916 | > 1000 | 0.752 | 1560 | 0.768 | 6.79 | 0.974 | > 10 | 0.989 | > 128 | 0.914 | > 20 |
| 8305C (thyroid, adherent) | 0.411 | 33.1 | 0.53 | 397 | 0.982 | > 20 | 0.898 | > 10 | 0.978 | > 128 | 0.936 | > 20 |
| 8505C (thyroid, adherent) | 0.404 | 33.5 | 0.755 | 1840 | 0.869 | > 20 | 0.949 | > 10 | 0.98 | > 128 | 0.822 | 12.5 |
| 23132-87 (stomach, adherent) | 0.774 | 408 | 0.859 | 4500 | 0.896 | > 20 | 0.943 | > 10 | 0.985 | > 128 | 0.786 | 8.95 |
| A172 (glioma, adherent) | 0.607 | 122 | 0.621 | 680 | 0.965 | > 20 | 0.928 | > 10 | 0.989 | > 128 | 0.883 | > 20 |
| A204 (rhabdomyosarcoma, adherent) | 0.707 | 288 | 0.412 | 171 | 0.757 | 8.83 | 0.924 | > 10 | 0.748 | 52 | 0.784 | 11.3 |
| A431 (skin, adherent) | 0.822 | 553 | 0.539 | 408 | 0.986 | > 20 | 0.969 | > 10 | 0.985 | > 128 | 0.821 | 11 |
| A498 (kidney, adherent) | 0.728 | 394 | 0.565 | 524 | 0.976 | > 20 | 0.947 | > 10 | 0.979 | > 128 | 0.971 | > 20 |
| A673 (rhabdomyosarcoma, adherent) | 0.888 | 924 | 0.794 | 2080 | 0.973 | > 20 | 0.99 | > 10 | 0.99 | > 128 | 0.954 | > 20 |
| A2780 (ovary, semi-adherent) | 0.5 | 62.7 | 0.797 | 2510 | 0.64 | 3.08 | 0.864 | 9.22 | 0.981 | > 128 | 0.839 | 14.4 |
| ABC-1 (lung adenocarcinoma, adherent) | 0.676 | 216 | 0.785 | 2690 | 0.957 | > 20 | 0.872 | > 10 | 0.982 | > 128 | 0.866 | > 20 |
| ACHN (kidney, adherent) | 0.514 | 68.8 | 0.545 | 431 | 0.886 | > 20 | 0.928 | > 10 | 0.98 | > 128 | 0.874 | > 20 |
| AN3-CA (endometrium, adherent) | 0.808 | 580 | 0.387 | 152 | 0.985 | > 20 | 0.982 | > 10 | 0.985 | > 128 | 0.882 | > 20 |
| ASH-3 (thyroid, adherent) | 0.181 | 6.84 | 0.904 | > 5120 | 0.988 | > 20 | 0.987 | > 10 | 0.978 | > 128 | 0.97 | > 20 |
| AsPC-1 (pancreas, adherent) | 0.317 | 13.2 | 0.748 | 2820 | 0.875 | > 20 | 0.935 | > 10 | 0.951 | > 128 | 0.852 | > 20 |
| BCPAP (thyroid, adherent) | 0.31 | 19.5 | 0.502 | 324 | 0.928 | > 20 | 0.968 | > 10 | 0.987 | > 128 | 0.784 | 7.64 |
| BEN (non-small cell lung carcinoma, adherent) | 0.984 | > 1000 | 0.9 | > 5120 | 0.933 | > 20 | 0.818 | 6.71 | 0.985 | > 128 | 0.914 | > 20 |
| BFTC-905 (bladder, adherent) | 0.138 | 5.85 | 0.731 | 1290 | 0.932 | > 20 | 0.958 | > 10 | 0.99 | > 128 | 0.893 | 18 |

| Cell Line | AUC [1] | IC50 [1] [nM] | AUC [2] | IC50 [2] [nM] | AUC [3] | IC50 [3] [µM] | AUC [4] | IC50 [4] [µM] | AUC [5] | IC50 [5] [nM] | AUC [6] | IC50 [6] [µM] |
| --- | --- | --- | --- | --- | --- | --- | --- | --- | --- | --- | --- | --- |
| BFTC-909 (kidney, adherent) | 0.77 | 372 | 0.839 | 3370 | 0.988 | > 20 | 0.976 | > 10 | 0.988 | > 128 | 0.948 | > 20 |
| BHT-101 (thyroid, adherent) | 0.068 | < 3.91 | 0.904 | > 5120 | 0.895 | > 20 | 0.518 | 0.702 | 0.985 | > 128 | 0.806 | 10.6 |
| BHY (head and neck, adherent) | 0.762 | 358 | 0.655 | 863 | 0.925 | > 20 | 0.963 | > 10 | 0.981 | > 128 | 0.845 | 14.4 |
| BICR10 (head and neck, adherent) | 0.804 | 595 | 0.726 | 1570 | 0.984 | > 20 | 0.983 | > 10 | 0.984 | > 128 | 0.946 | > 20 |
| BICR22 (head and neck, adherent) | 0.253 | 10.8 | 0.947 | > 5120 | 0.983 | > 20 | 0.955 | > 10 | 0.974 | > 128 | 0.919 | > 20 |
| BICR78 (head and neck, adherent) | 0.498 | 61.7 | 0.805 | 3070 | 0.94 | > 20 | 0.962 | > 10 | 0.978 | > 128 | 0.942 | > 20 |
| BPH-1 (prostate, adherent) | 0.206 | 7.54 | 0.733 | 1610 | 0.47 | 1.02 | 0.91 | > 10 | 0.966 | > 128 | 0.927 | > 20 |
| BT-20 (breast, adherent) | 0.77 | 472 | 0.923 | > 5120 | 0.981 | > 20 | 0.935 | > 10 | 0.978 | > 128 | 0.936 | > 20 |
| BT-483 (breast, adherent) | 0.974 | > 1000 | 0.974 | > 5120 | 0.88 | > 20 | 0.976 | > 10 | 0.975 | > 128 | 0.873 | > 20 |
| BxPC-3 (pancreas, adherent) | 0.341 | 21.3 | 0.608 | 660 | 0.897 | > 20 | 0.983 | > 10 | 0.981 | > 128 | 0.806 | 11.7 |
| C3A (liver, adherent) | 0.505 | 64.7 | 0.808 | 2770 | 0.988 | > 20 | 0.931 | > 10 | 0.988 | > 128 | 0.988 | > 20 |
| C32 (melanoma, adherent) | 0.077 | < 3.91 | 0.978 | > 5120 | 0.97 | > 20 | 0.968 | > 10 | 0.987 | > 128 | 0.987 | > 20 |
| C-33-A (cervix, adherent) | 0.427 | 39.4 | 0.61 | 644 | 0.986 | > 20 | 0.931 | > 10 | 0.986 | > 128 | 0.871 | 19 |
| CAKI-1 (kidney, adherent) | 0.708 | 326 | 0.497 | 313 | 0.919 | > 20 | 0.915 | > 10 | 0.968 | > 128 | 0.903 | > 20 |
| CAL-12T (non-small cell lung carcinoma, adherent) | 0.7 | 247 | 0.793 | 2640 | 0.965 | > 20 | 0.959 | > 10 | 0.983 | > 128 | 0.783 | 9.49 |
| CAL-27 (head and neck, adherent) | 0.245 | 11.3 | 0.905 | > 5120 | 0.908 | > 20 | 0.971 | > 10 | 0.984 | > 128 | 0.936 | > 20 |
| CAL-29 (bladder, adherent) | 0.411 | 34.9 | 0.748 | 1760 | 0.978 | > 20 | 0.945 | > 10 | 0.984 | > 128 | 0.866 | > 20 |
| CAL-33 (head and neck, adherent) | 0.432 | 40.7 | 0.744 | 1600 | 0.965 | > 20 | 0.959 | > 10 | 0.984 | > 128 | 0.891 | > 20 |
| IGR-37 (melanoma, adherent) | 0.031 | < 3.91 | 0.768 | 1760 | 0.957 | > 20 | 0.986 | > 10 | – | – | 0.78 | 7.48 |
| SBC-3 (small cell lung carcinoma, adherent) | 0.879 | 868 | 0.796 | 2160 | 0.616 | 2.52 | 0.968 | > 10 | – | – | 0.876 | 16.8 |
| SNU-398 (liver, adherent) | 0.814 | 572 | 0.326 | 102 | 0.89 | > 20 | – | – | 0.984 | > 128 | 0.715 | 5.2 |
| SiHa (cervix, adherent) | 0.912 | > 1000 | 0.819 | 3490 | 0.987 | > 20 | – | – | 0.987 | > 128 | 0.987 | > 20 |
